Assay results: PubChem BioAssay AID1159614 (National Center for Advancing Translational Sciences (NCATS), 2016)
The campaign covered roughly 45,000 compounds. About 65 (0.1%) were called active. Calls follow the shape of the dose curve; as a rule, active = well fitted activation curve with a large enough effect; inconclusive = small, poorly fitted or top-dose-only effect; inactive = no such curve, though single readings can be large or run the other way. The list shows a part of the results.
Also: nearly all actives have a fitted effect of over 65% in size.
For activation in this document: 0% is about no effect.
Potency is read from the fitted curve at half-maximal effect.

Each compound was assayed against Galactocerebrosidase (Homo sapiens) (UniProt P54803) (assay: A Novel Cell-Based Assay to Identify Small Molecules for B -Galactocerebrosidase). Settings: 145M-Twi-hGALC-G270D cells (Twitcher mouse brain line with human GALC G270D), HMU-beta-Gal fluorescence, 48 h; series mostly up to 57.5 µM; activation: at the top concentration.
UniProt P54803, sequence (P54803 whole entry, looked up): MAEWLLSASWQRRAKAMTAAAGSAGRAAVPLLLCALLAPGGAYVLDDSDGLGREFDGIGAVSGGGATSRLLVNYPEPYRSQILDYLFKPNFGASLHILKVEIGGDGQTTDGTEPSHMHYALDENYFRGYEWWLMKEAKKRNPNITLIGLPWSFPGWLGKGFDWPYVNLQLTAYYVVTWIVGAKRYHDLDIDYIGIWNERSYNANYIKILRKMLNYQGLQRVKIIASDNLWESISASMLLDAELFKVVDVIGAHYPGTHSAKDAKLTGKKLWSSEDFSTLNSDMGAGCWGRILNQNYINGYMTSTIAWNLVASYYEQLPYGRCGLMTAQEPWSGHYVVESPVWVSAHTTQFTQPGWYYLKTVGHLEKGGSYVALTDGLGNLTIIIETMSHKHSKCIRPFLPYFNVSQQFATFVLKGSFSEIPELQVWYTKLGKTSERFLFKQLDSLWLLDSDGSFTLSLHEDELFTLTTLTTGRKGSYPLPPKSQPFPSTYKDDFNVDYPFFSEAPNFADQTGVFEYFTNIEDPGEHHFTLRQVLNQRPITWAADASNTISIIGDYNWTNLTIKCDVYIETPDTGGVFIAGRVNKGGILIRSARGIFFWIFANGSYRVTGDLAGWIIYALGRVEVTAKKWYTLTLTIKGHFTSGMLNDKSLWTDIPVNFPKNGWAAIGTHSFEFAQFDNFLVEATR
How it was run: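 Live 145M-Twi cells (Twitcher mouse brain-derived, GALC-null) stably expressing human GALC-G270D, with a wild-type GALC line, were compound-treated. Residual GALC activity was then read as fluorescence from 0.1 mM final HMU-β-gal at pH 5.2; higher signal means activation.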
`CN(C)S(=O)(=O)c1ccc2c(c1)N(CC(=O)NCc1cccc(Br)c1)C(=O)CS2` was tested, and the “activation” value was inactive: -15.9%. `Cc1cc2nc(-c3ccc(Cl)cc3)cc(C(F)(F)F)n2n1` was tested, and the “activation” value was inactive: 16.5%. For `O=S(=O)(NCCc1csc2nc(-c3ccc(Cl)cc3)nn12)c1ccc(Oc2ccccc2)cc1`, the “activation” value was inactive: -12.1%. `CC(=O)c1cccc(NC(=O)CSc2nnc3ccc(-c4ccc(C)cc4)nn23)c1` was tested, and the “activation” value was inactive: -16.5%. With `Cc1ccccc1-c1nc(C(N)=O)c2c(n1)n(-c1ccc3c(c1)OCO3)c(=O)n2C` the “activation” value was inactive: -14.1%. In the case of `Nc1ccncc1N`, the “activation” value is reported as inactive: -10.6%. `Cc1ccc(C)c(Cn2c(=O)n(Cc3ccc(C(=O)NC4CCN(Cc5ccccc5)CC4)cc3)c(=O)c3ccccc32)c1` was tested, and the “activation” value was inactive: -7.25%. In the case of `Cc1ccc(-c2nnc(NC(=O)c3ccc4c(c3)OCCO4)o2)c(C)c1`, the “activation” value is reported as inactive: -9.76%. `Cc1cc2c(cc1S(=O)(=O)CCC(=O)NC1CCC(C)CC1)OCC(=O)N2` (configuration not stated) was tested, and the “activation” value was inactive: 0.832%. `COc1ccccc1-c1nnc2n(CCc3ccccc3)c(=O)c3ccccc3n12` was tested, and the “activation” value was inactive: -11.9%. `O=c1cc2nc(-c3cccs3)nc(SCCOc3ccc(Cl)cc3)n2[nH]1` was tested, and the “activation” value was inactive: -22.3%. `CCn1c(=N)c(C(=O)NC2CCCCC2)cc2c(=O)n3cccc(C)c3nc21` was tested, and the Potency was active: 28.2 µM. For `O=C1CC(c2nnc(Cc3ccc(Cl)cc3)o2)CN1c1ccccc1` (configuration not stated), the “activation” value was inactive: -12.9%. With `O=C(CC1C(=O)N(c2ccc(F)cc2)C(=O)N1Cc1ccc2c(c1)OCO2)Nc1ccc(F)cc1` (configuration not stated) the “activation” value was inactive: -12.9%. In the case of `CC(=O)N1c2ccccc2CC1C(=O)N1CCN(c2cccc(Cl)c2)CC1` (configuration not stated), the “activation” value is reported as inactive: -11.3%. For `Cc1ccc(O)c(NC(=O)c2noc3c2CCCCC3)c1`, the “activation” value was inactive: -18.7%. For `COc1cccc(-n2cc(C(=O)Oc3cccc(C(F)(F)F)c3)c3ccccc3c2=O)c1`, the “activation” value was inactive: -13.8%. For `Cc1ccc(C)c(CN2C(=O)c3ccccc3S(=O)(=O)c3ccc(C(=O)N4CCCC4)cc32)c1`, the “activation” value was inactive: -1.81%. For `Nc1c(-c2nc(-c3cccs3)no2)nnn1-c1cccc(F)c1`, the “activation” value was inactive: -9.85%. For `CCc1ccc(NC(=O)c2ccc3oc(=O)n(Cc4ccccc4)c3c2)cc1`, the “activation” value was inactive: -2.67%. With `CCN(c1ncnc2c1cnn2-c1cc(Cl)ccc1C)C1CCCCC1` the “activation” value was inactive: -12.8%. In the case of `COc1cccc(CNC(=O)CN2C(=O)CCCc3ccccc32)c1OC`, the “activation” value is reported as inactive: -2.88%. `CCOc1ccc(OCC)c(NC(=O)C(NS(=O)(=O)c2ccc(Br)s2)c2ccccc2)c1` (configuration not stated) was tested, and the “activation” value was inactive: -1.04%. `CCCN(CCC)C(=O)Cn1c(=O)n(-c2ccc(C)cc2)c(=O)c2ccc(C(=O)NCc3ccccc3Cl)cc21` was tested, and the “activation” value was inactive: -10.9%. With `CNC(=O)C1CCN(Cc2cc3ccccc3n2Cc2ccccc2C)CC1` the “activation” value was inactive: -8.81%. `CCc1sc(Nc2ccc(C)cc2Br)nc1-c1cc2cccc(OC)c2oc1=O` was tested, and the “activation” value was inactive: -11%. `CC(=O)NCCNc1nc2c(-c3ccc(C)cc3)nnn2c2ccccc12` was tested, and the “activation” value was inactive: -5.23%. For `CCOC(=O)CSc1nc2c(sc3ccccc32)c(=O)n1Cc1ccc(C)cc1`, the “activation” value was inactive: -13.8%. `CCC1CN(C(=O)N2CCC(C(=O)NCCc3ccc(C)cc3)CC2)c2ccccc2O1` (configuration not stated) was tested, and the “activation” value was inactive: -4.8%. In the case of `CCCCNC(=O)Cn1c(=O)cc(C)c2c(C)nn(-c3ccc(CC)cc3)c21`, the “activation” value is reported as inactive: -11.7%. For `Cc1ccc(-n2nc(CO)c(C(=O)NCC(c3ccccc3)c3ccccc3)n2)cc1`, the “activation” value was inactive: 5.17%. In the case of `O=C(NCc1cccc(Br)c1)C1CCN(C(=O)c2sccc2-n2cccc2)CC1`, the “activation” value is reported as inactive: -10.2%. `O=C(CCc1nnc2n(Cc3ccccc3Cl)c(=O)c3ccccc3n12)Nc1ccc(F)c(F)c1` was tested, and the “activation” value was inactive: -10%. In the case of `Cc1oc(-c2ccccc2)nc1CSc1nnc(C)n2c1cc1sccc12`, the “activation” value is reported as inactive: 2.33%. `CCOCCCNC(=O)CCC(=O)NNc1nc2ccccc2c2nc(-c3ccccc3)nn12` was tested, and the “activation” value was inactive: -14.2%. With `Cc1ccc(-c2cn3c(n2)sc2cc(C(=O)NCc4cccs4)ccc23)cc1` the “activation” value was inactive: -23%. `COc1cccc(NC(=O)CSc2nc3c([nH]c4ccccc43)c(=O)n2-c2ccccc2)c1` was tested, and the “activation” value was inactive: -21.3%. With `CCOc1ccccc1NC(=O)CSc1nnc(N)s1` the “activation” value was inactive: -7.78%. With `Cc1ccc(NC(=O)CSc2nnc(C)n3c2cc2sccc23)c(C)c1` the “activation” value was inactive: -8.87%. `CCCN1C(=O)c2[nH]nc(-c3ccccc3O)c2C1c1cccc(OCc2ccccc2)c1` (configuration not stated) was tested, and the “activation” value was inactive: -6.83%. In the case of `Brc1ccc(-c2nnc3sc(CN4CCCCC4)cn23)cc1`, the “activation” value is reported as inactive: -16%. In the case of `Cc1ccccc1-c1nnc(CN2CCN(c3cccc(C)c3C)CC2)o1`, the “activation” value is reported as inactive: -9.49%. In the case of `CCC(=O)Nc1ccccc1-c1nc2ccccc2n(CC(=O)c2ccc(C)c(C)c2)c1=O`, the “activation” value is reported as inactive: -14.9%. In the case of `COc1cc(C(=O)NCC(c2cccnc2)N2CCc3ccccc3C2)cc(OC)c1OC` (configuration not stated), the “activation” value is reported as inactive: -8.23%. In the case of `COCCNC(=O)C(=O)NCC(c1cccnc1)N1CCN(c2ccccc2OC)CC1` (configuration not stated), the “activation” value is reported as inactive: -6.38%. In the case of `O=C(NCc1ccccc1Cl)c1cc2c(s1)-c1ccccc1SC2`, the “activation” value is reported as inactive: -5.9%. For `Cc1ccc(CSc2ccc(-c3cccs3)nn2)cc1`, the “activation” value was inactive: -15.1%. With `O=C(Cn1ncc2c3ccccc3n(Cc3ccccc3F)c2c1=O)NC1CCCCCC1` the “activation” value was inactive: -13.2%. `CC(C)(C)NC(=O)c1cnn(-c2ccccc2)c1C1CCN(C(=O)OC(C)(C)C)CC1` was tested, and the “activation” value was inactive: -10.3%. `COc1cc(C2c3c(-c4c(C)cc(C)cc4O)n[nH]c3C(=O)N2CCO)cc(OC)c1OC` (configuration not stated) was tested, and the “activation” value was inactive: -19.2%. In the case of `Cc1ccc(-c2cc(-c3ccc4c(c3)NC(=O)CO4)nc3c2COc2ccc(C)cc2-3)cc1`, the “activation” value is reported as inactive: 13.9%. `CN(C)S(=O)(=O)c1ccc(C(=O)NCCS(=O)(=O)N2CCN(c3ccccc3)CC2)cc1` was tested, and the “activation” value was inactive: -13.7%. For `Cc1nc2nc(SCc3c(F)cccc3Cl)nn2c(C)c1Cc1ccccc1`, the “activation” value was inactive: 2.7%. `Cc1ccc(CN(C(=O)COc2ccc(Cl)c(C)c2)c2ccccn2)o1` was tested, and the “activation” value was inactive: -21.8%. In the case of `Cc1oc2ncn(C)c(=O)c2c1C(=O)Nc1ccccn1`, the “activation” value is reported as inactive: -7.36%. `O=C(CN1C(=O)COc2ccc(S(=O)(=O)N3CCOCC3)cc21)N1CCN(c2cccc(C(F)(F)F)c2)CC1` was tested, and the “activation” value was inactive: -13%. `C[C@]12CCC(=O)C=C1C=C[C@@H]1[C@@H]2CC[C@@]2(C)[C@H]1CC[C@@]21CCC(=O)O1` was tested, and the “activation” value was inactive: -1.39%. For `Cc1ccc(C(=O)/C=C/c2cn(CC(O)CN3CCc4ccccc43)c3ccccc23)cc1` (configuration not stated), the “activation” value was inactive: -5.51%. For `Cc1cc(-n2c(C)nc3ccccc3c2=O)ccc1NC(=O)c1ccc(C)c([N+](=O)[O-])c1`, the “activation” value was inactive: -43.6%. With `COc1ccc(-c2noc(COc3cc(C)c(Br)c(C)c3)n2)cc1OC` the “activation” value was inactive: -17.1%. In the case of `Cc1cc(NC(=O)c2ccccc2Cl)ccc1NC(=O)c1ccccc1`, the “activation” value is reported as inactive: -18.6%. `COc1ccc(OC)c(CNC(=O)c2cc3cc4ccc(OC)cc4nc3o2)c1` was tested, and the “activation” value was inactive: -16.9%.
